Laboratory results as given in the supplement of paper PMC10126150.
Sequences with one replicate were seen in a single cluster, so their values are uncertain.

Each sequence was assayed on ATP (assay: switch fluorescence ratio, 500 uM ATP over buffer (Cy3 cluster intensity, sum of 5 cycles each) (fold (ratio)); higher = stronger signal-on switching upon ATP binding; sequences stand for … in TCGTCGGCAGCGTCAGATGTGTATAAGAGACAGTTTTTTTTTTTTTTTTTTTTTTTTT…TC). Conditions: aptamer strand: ATP DNA aptamer (quencher-CACCTGGGGGAGTATTGCGGAGGAAGG + anchor), 100 nM annealed; ATP concentration: 500 uM; one replicate.
In short: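 Clusters with intensities outside 100-1000 RFU were excluded. The remaining Cy3-labelled switching-strand clusters on a modified Illumina MiSeq flow-cell had been annealed to 100 nM quencher-labelled ATP aptamer and imaged in selection buffer, then after 15 min with 500 uM ATP at 22 °C, for five cycles separated by NaOH stripping and re-annealing. The fluorescence ratio, averaged per switch-domain sequence, is each cluster's summed target-cycle Cy3 intensity over its summed buffer-cycle Cy3 intensity.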
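Note: ATP exposure 15 min at 22 °C before imaging.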

Row | Sequence | switch fluorescence ratio
1 | TATGCGGCAA | 1.26
2 | GCTGACGTCT | 0.961
3 | ACCCCGCAGG | 2.28
4 | AACAACGTCG | 0.987
5 | TACAGGGACG | 1.23
6 | GGGCACGGTC | 1.05
7 | AAAGAGTCGG | 1.02
8 | CACTGAGTTG | 0.999
9 | TCACCAGTCG | 1.05
10 | TCTAGGCAC | 1.04
11 | TTCTGATTTC | 1.06
12 | CACGGTGTTG | 1.05
13 | CGACGGGCGC | 2.11
14 | GAGCAGAACA | 1.01
15 | TTCTCGGTTA | 0.959
16 | TTTCTTCCTT | 1.05
17 | ATCGTCCCT | 1.06
18 | CATGTGTGA | 0.964
19 | AGTTGTGA | 1.02
20 | ATGGTGTCCC | 0.979
21 | ACAGCGATT | 1.06
22 | TCGATTTCAA | 0.976
23 | CGGGTACTGA | 0.985

Row | Sequence | switch fluorescence ratio
24 | GAAAGAAGGT | 1.08
25 | GAGGGGCCGT | 0.994
26 | GATGTTCCAA | 0.97
27 | CCGTACTGGG | 1.07
28 | GGGTGGTT | 1.01
29 | CCGTGGACCC | 1.24
30 | TGGTGTGTG | 0.943
31 | GGATAGTGAG | 0.982
32 | CTAGGCAGCA | 1.02
33 | GTTCGAGCTT | 1.02
34 | AGGCGTCTTT | 0.99
35 | CGGGGCGACC | 1.02
36 | TGCTGGTAAT | 0.987
37 | TTCTATATTC | 0.981
38 | CCGCCGTCAT | 1.47
39 | CTACTGGGA | 1.01
40 | ATATTTCCGC | 1.05
41 | CAACCTCACA | 1.15
42 | GCGTCCCAGC | 0.934
43 | GACCCTAGGA | 1.04
44 | TCACTTTCTT | 0.964
45 | GCAACGAGCC | 1.74
46 | GGTTGACCTC | 1.03

Row | Sequence | switch fluorescence ratio
47 | AAAGCTAAGC | 1.02
48 | AAACCCTCGG | 1.02
49 | CAGTGTAAGA | 0.979
50 | GTAGTGGGTG | 1
51 | GAGGGCTTCT | 1
52 | CTTGATGTTA | 1.01
53 | TTGGAATGGC | 0.969
54 | TTCCAGCGAA | 1.06
55 | GGGGACTTG | 1.01
56 | CGATCACCC | 0.996
57 | TCCCACATTT | 1.01
58 | TTAGCGCGAT | 1.1
59 | CTTTGCCTAC | 1.77
60 | GTCGCTGATA | 0.979
61 | GGGCGTGCAT | 1
62 | GTAAGGCGGA | 1
63 | TCACTTAACG | 1.17
64 | GGATCGGAAA | 1.03
65 | TGGGCAGAAA | 0.987
66 | ATACAAAGAG | 1.04
67 | GCTCGGATCA | 0.958
68 | GGTGATAACA | 1
69 | GAAATAAGGG | 1.02

Row | Sequence | switch fluorescence ratio
70 | GCGTTATTC | 1.01
71 | GGGTAGAGAA | 1
72 | CAGAGTACAG | 0.991
73 | TGCAGTTCC | 1.13
74 | ACGGCATGAA | 1.09
75 | TGCCTCAAAT | 1.01
76 | ACCTTTCGAT | 1.5
77 | AGTGTAAATG | 1.03
78 | CGCACATTCG | 1.29
79 | TAATCTAATG | 0.979
80 | TAAGGGAACT | 0.958
81 | TCTCAGGGCT | 1.01
82 | TCTGACCCCT | 1.13
83 | CGGGGTGATT | 0.992
84 | TAACCATCTA | 1.03
85 | TAAAGTCGT | 0.974
86 | GGTAGTATAT | 0.987
87 | TTAAGTAGCG | 0.935
88 | CGATCGGGGT | 0.986
89 | AAGTCGGGGT | 0.959
90 | GCCGGCCTGG | 0.997
91 | ACTACCTACT | 1.31
92 | GCTGGGTTTT | 1.05

Row | Sequence | switch fluorescence ratio
93 | CACTCCAGCA | 2.68
94 | TGGGTCCGAA | 1.04
95 | TGGTTTAAAG | 1
96 | AAGTGACGCT | 0.984
97 | GCCTCTTACG | 1.04
98 | AGTAATTCGG | 1.01
99 | TAGGACTTT | 1.03
100 | CCGGTACTAA | 1.19
101 | GTGTTTCGGG | 1.03
102 | TAGACTGTTT | 0.982
103 | CTGACTGTCA | 1.23
104 | CAAAAACTTT | 1.08
105 | ACTTGGGGTC | 1.02
106 | AATGTTGCAG | 0.998
107 | ATAATTCGGA | 0.976
108 | TCTGTTTATC | 0.971
109 | AGTAAGTGCG | 1.04
110 | TGGGATCTCT | 1
111 | GGTTGTACTG | 0.932
112 | GGTCACATAT | 1.03
113 | GGGGATGAGT | 0.97
114 | ATCGTACGGG | 1.03
115 | AACTAAAATT | 1.01

Row | Sequence | switch fluorescence ratio
116 | ATACTGGGTG | 1.18
117 | CAGGACCACC | 1.03
118 | GCAAGTAGGT | 1.04
119 | TATGTATCAC | 1.06
120 | ATAATAAGCA | 0.989
121 | GATTCTAGTT | 1.03
122 | ATCGTCTTT | 0.96
123 | GAGGAGTGAG | 0.938
124 | TCTGTGCGTA | 0.985
125 | TCAGTTAAGA | 0.996
126 | CGACCTCCTG | 1.06
127 | CATGCCGT | 0.919
128 | GGCGCCCTTT | 0.999
129 | ATTTGTATGG | 0.997
130 | GGCTACGACG | 1.02
131 | TGGGTAAGCC | 1
132 | TAAATTAATA | 0.982
133 | TGTTAGTTCA | 0.973
134 | GTAACGAAAA | 1.16
135 | TGGCAAGGTT | 1.27
136 | CAATGGACGG | 1.02
137 | ATGGAATTCA | 0.979
138 | AACGATCGTG | 0.972

Row | Sequence | switch fluorescence ratio
139 | CTTTCTACAG | 1.04
140 | GCTCTGAAAT | 1.9
141 | ACTTCGGCGG | 1.03
142 | ACCACATTTG | 1.01
143 | ATTCCCTAGA | 0.945
144 | TCCGAGGACA | 1.06
145 | ATACTGC | 1.03
146 | ATGTCAGTTG | 1.02
147 | AGTTATGTCA | 0.977
148 | GGGAGGTAAA | 1.03
149 | AGAAAGTAAC | 0.997
150 | CTGCTTTTTC | 0.991
151 | GGATTACGGG | 0.966
152 | TACCACACAA | 1.2
153 | ACATTACATG | 1.11
154 | GCGTCGCTGC | 1.09
155 | TCACCTCTCG | 1.09
156 | TGTATGAAG | 0.968
157 | GGAGGGTTCT | 1.05
158 | TGCGATTACA | 1.02
